The other results are listed elsewhere or left out. At the low end of the ranking the order means little. Measured with an extract: partners may take part in the binding.

Data on 93 sequences can be found in paper PMC10726135.

For this test, the target named is T1, HNF4alpha8 (COS-7 nuclear extract) (UniProt P41235-5).
T1 sequence: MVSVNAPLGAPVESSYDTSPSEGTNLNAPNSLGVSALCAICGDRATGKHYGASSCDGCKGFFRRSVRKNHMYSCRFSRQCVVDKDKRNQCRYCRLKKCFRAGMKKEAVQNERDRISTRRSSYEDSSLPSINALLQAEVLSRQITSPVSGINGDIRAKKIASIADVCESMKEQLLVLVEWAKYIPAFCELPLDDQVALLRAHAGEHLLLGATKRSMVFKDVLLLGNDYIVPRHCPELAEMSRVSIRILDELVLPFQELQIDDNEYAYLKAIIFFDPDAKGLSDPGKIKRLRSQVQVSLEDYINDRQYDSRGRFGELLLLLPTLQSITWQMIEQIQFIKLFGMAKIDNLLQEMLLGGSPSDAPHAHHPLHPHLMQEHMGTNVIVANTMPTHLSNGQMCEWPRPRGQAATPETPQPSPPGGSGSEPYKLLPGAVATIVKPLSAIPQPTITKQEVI
Nature of the test: protein-binding microarray. The note with it: COS-7 nuclear extract on double-stranded Agilent 4x180k PBM; binding buffer, salt, pH and temperature not given; high values mean tight binding; double strand, one strand shown; sequences stand for … in …GCCTAGGGAGATTAGAGTATCGGTCGA
For GGAGTTCCATTTAGCTTCAGTCTAAATGAT, the binding signal (log2 normalized intensity) was -0.39.
Then GTCTGATTGGTTGCAGAAGGCAGCCAAACA, with -1.4; and AGGCATACTCCTCCTGGCTTCTGGACTATG, with 3.12; and GGGAAAGACTTAGGATCTAGCAAATTTGGG, with -1.37.
Consider CAAATGCTTCCAAGAATTTAAGAGAACTAG, for which the binding signal (log2 normalized intensity) was -1.41.
In the case of TCGCAGCTGCATAGATAAGAAAGGCTACAA, the binding signal (log2 normalized intensity) was -1.32.
As to TGGTGGACGTACGCTCCCAGTATGAGCGGC, the binding signal (log2 normalized intensity) was -1.2.
For the sequence CTAAGCAGGCACATTCCAGGACCTTTGCTC, the binding signal (log2 normalized intensity) came to 4.83.
Then CAATGTGTGACAGAAGTCATGTCTCATTGC, with 0.632.
With ATGCCAGATGACCTTTGCCCTTGACTTTTT, the binding signal (log2 normalized intensity) stood at 9.28.
On to AGAGGAAAGCCCTAGCTGACTGCGTCAGGC, for which the binding signal (log2 normalized intensity) is -1.48.
Consider TTACATGCCTTATCTGGTTCAAAGGTCATT, for which the binding signal (log2 normalized intensity) was 8.2.
The value for AAAGCCACCCCTTTCTCCTCTCTTTCCATA was 0.633; that for CGAGAAGGCAGCCACCCACAAGCCAAGGAG was -1.27; that for ACTCCAGAACCAAAGTCCTAGAGTCCCTAT was -1.32.
In the case of CTAGGCAATCCCATGACCTTTGTACTAATG, the binding signal (log2 normalized intensity) was 8.3.
On to TATGTTGTCCGGACACCAACCTTTGATCAT, for which the binding signal (log2 normalized intensity) was determined as 6.21.
Regarding CAAAGTCCGCTTGCCTGAGGGTCATGACTA, the binding signal (log2 normalized intensity) worked out at 2.89.
With CCGGGAATCCTCAGCCTTCTCCGCGGCGGG, the binding signal (log2 normalized intensity) is -1.39.
Then AAGCACTTCAAAGGTCGTGTGCTTATCACA, with 2.06; and TAGCAGGTGACAAATCCAGGATCAAATACA, with -1.47; and CATATTTGCTTAAGCTTTCTGTCTGCAGCT, with -1.31.
As for TTTTTGGCCTTTACCCCTTGAGTTTGAACT, the binding signal (log2 normalized intensity) worked out at 4.12.
On to GCAGCAGCCGGCCTCTTAACAGATGAGGAC, for which the binding signal (log2 normalized intensity) is -1.26.
The value for TTTGGAAAACTGGCCCTGATTTCAAAGTTC was 3.23; that for CCCCTGACTACCAGCCAGTAGGAGTTGGAA was -1.11; that for CATAGTTGACATTCCATCATTATCCTGTGT was 1.7.
On to ACTTTACAGATAAAGAAACCATAGACCCTA, for which the binding signal (log2 normalized intensity) was -1.32.
Then CACATTCAGCCCACTTCCTACCATCAAAGG, with 0.434; and TTTGACCATCCACGGGTCCATGATTGCTGT, with 2.1.
In the case of AGATAGCTTGAGGCCAGCTCATAGGGATCA, the binding signal (log2 normalized intensity) was -1.29.
Consider GTGAGAGGCGGAACAAGGCTGAAGGGAAGC, for which the binding signal (log2 normalized intensity) is -1.34.
Turning to GTAAAAACAGTTATGGATTAAAAGCACATA, the binding signal (log2 normalized intensity) is -1.21.
Take ACCTTGTTTTGTCTTCTGTTTGCAAATGGA: the binding signal (log2 normalized intensity) amounted to 2.22.
For AGGGGCTGCTGGGAGTTGTAGTTTTTTGGG, the binding signal (log2 normalized intensity) was determined as 1.32.
Then TGCATTCTTGTAGGTTTTTTTTTTTTTTAA, with 2.24; and CTTTTTTTTTTCAAGTGTTAGCTGTTTCCA, with 0.447.
Regarding TCTGCTGAGGTGGCTGCAGAGTGGGAGGCC, the binding signal (log2 normalized intensity) is -1.27.
Then TTCCCTCCACTTCCTTTCTTTCCCTTTCTG, with 0.396.
The value for TGCACAGGTTCCTCGCCTATGGTATGTATG was 1.53; that for TTGAAGCTCCAAGATAGGAATGTACATAAT was 0.638.
In the case of AGGGTTTAAAGGGCAGAAGAAGGGATTTAG, the binding signal (log2 normalized intensity) amounted to 1.74.
As for ACTCCTGGAAAAACCACACACTCCATAACT, the binding signal (log2 normalized intensity) was -1.17.
The value for GTTAGATAGAGGAGTCAAGCAAACACACTT was -1.31; that for AGCATTTGTTTTAAGTTCATAGGTCCTCTT was 2.24; that for CCTGGACCCCTCCGGCAGCGGCCGGAAAAA was 1.66.
Then CCTCGGGTCCCACACACCTCAAATGCAGGT, with -1.37; and ACCCTAGAGATGTACACAGTTCAAAGGGCA, with 6.49; and AAAGGAATGTGCCTGCAAGTTCAAAAGGAC, with 1.17.
For CTTAACAAACACAAAAAGCGGACAAACCAG, the binding signal (log2 normalized intensity) was -1.35.
For the sequence AAGATAAAGTGTCTCTATTTGGAACCAAGA, the binding signal (log2 normalized intensity) amounted to 0.941.
As to GTTGGAAGCTGATAAGCCAAGAATGTACTC, the binding signal (log2 normalized intensity) was 0.371.
Consider GGCAAGCAGGAGCTGGCCTGGTAGGACAGG, for which the binding signal (log2 normalized intensity) is -1.33.
Consider GCCAGGGATTAAAGAATTCGTCCAGGGCCG, for which the binding signal (log2 normalized intensity) was -1.27.
The value for GAGAGTCAACACTGAAATAGCATACCTTTA was -1.02.
The value for TCCATCAATGAAGCATATCAGTAGTTGCAA was 0.0715.
The value for GAATGCTGTCCTGCCAGTTGTCATTTGGGG was 0.651; that for TTCTTTATGGACCTTGTCCCTGGATTGTGT was 4.6; that for TGCTGGAGATGAGGCTCAGACCTGACCTTT was 7.17.
As to TAAACAGCATTTGTTTTAAGTTCATAGGTC, the binding signal (log2 normalized intensity) came to 4.97.
For GATTTTGTTGGGGAACTTTGCCCGGATTCC, the binding signal (log2 normalized intensity) is 3.21.
The value for AAAGGTTAACATTCTTGCTTTCTGACTCTT was 1; that for GGCGGCGCGGCCGGAGCGGCGGACCCGGCG was 0.392.
Then AGGGGAGGCTGAGGTTTTCATCCCAGGGCT, with -1.41; and CAGAGGGTGGCAGCAGCAGGCAGGGACTTT, with 2.15; and TTAACCTTTGATCATATGCATTTCCCTAGA, with 3.82.
Then ATCACACAAAACGCACAGAGGCCCCTGATG, with -1.24.
On to TAGTCTAGACTTTGCTTTCTTGGAGGTTAA, for which the binding signal (log2 normalized intensity) was found to be 2.19.
For the sequence TTGCAGCAAGGAATTCAACCCTTGTCACTT, the binding signal (log2 normalized intensity) was determined as 3.35.
Then GACATGCAGTATGGGGACTTTGGACTCCTG, with 8.41; and ACAGACTCTGGGAGATAAAGCAGAGGGCTG, with -1.35; and AGAGCAATCTCTCATCTGCCTTGTGATTTC, with 0.631.
The value for ACCAGGGGTCATTTTATGGGAAAACAGAAT was 1.5; that for ATAACATGAGGATACTGATAACATGAGGTA was -0.314.
The value for TATCTGTAAAATGGACATAGTAACAACCTA was -1.25.
For the sequence CAGCCACGCTCCTCTTATCATTAGATTCCA, the binding signal (log2 normalized intensity) was -0.531.
Then AGGAGATGTGGTGGACTTTAACGACCTTTG, with 5.28; and AGAGAATAGCTCAGGTCCAAGGAACCTCAC, with -1.32; and CACAGTGTAGAAGGCAAGGGTCAAGATGTC, with 2.31.
Then TTCGGTGCTGACCTTTGTTCACATTTGTGC, with 5.96; and GAGAAGTGAACTTTGCCCTCTCTTTCTGGA, with 8.26.
On to CACTGTTGCCCCTTCCAAAGTCCACCTCAA, for which the binding signal (log2 normalized intensity) came out at 5.11.
Regarding CTAGGAGAGTCCGGGGCAAACAAGGGCAAC, the binding signal (log2 normalized intensity) was found to be 0.0674.
Regarding AAAGAAGAATGTGGCCATTTTACTTGTCAA, the binding signal (log2 normalized intensity) amounted to 0.377.
With GCTTCTGCCCCAGACACGCTTGACTGGCTC, the binding signal (log2 normalized intensity) was -1.28.
As to ACTCACTAGCATTAGGACCTGTTTGTCTTG, the binding signal (log2 normalized intensity) worked out at 1.03.
In the case of TCTATTCTATCTGTATTCTGAAGCCCTACA, the binding signal (log2 normalized intensity) was -0.992.
With ATGATACAGCCTTTTGCCCCCAGGCTGCAA, the binding signal (log2 normalized intensity) turned out to be 3.59.
As for TTATCATTACTTCTCAACTGATATGGCTCT, the binding signal (log2 normalized intensity) stood at 0.393.
Then CAGCGTGAACTTTGACATGAGAGAAAAGAA, with 3.5; and AACTGGTTCTGTGGAATTTGTGCTTATTTC, with 2.15.
The value for CATGTGCCAGATATGCCGAGAATGCAGCCT was -1.39; that for TGATGTTCCCCCTCCCTGGACTCCTGGGAC was 4.43.
